According to the BET-seq Pho4 binding data (Le et al. 2018):
This is one part of the list. These are noisy estimates, calculated here from bound and input reads.

Each sequence was assayed against T1, Pho4 (S. cerevisiae) (UniProt P07270) (assay: relative binding free energy (BET-seq); higher = weaker binding). Conditions: reference: library average.
T1 sequence: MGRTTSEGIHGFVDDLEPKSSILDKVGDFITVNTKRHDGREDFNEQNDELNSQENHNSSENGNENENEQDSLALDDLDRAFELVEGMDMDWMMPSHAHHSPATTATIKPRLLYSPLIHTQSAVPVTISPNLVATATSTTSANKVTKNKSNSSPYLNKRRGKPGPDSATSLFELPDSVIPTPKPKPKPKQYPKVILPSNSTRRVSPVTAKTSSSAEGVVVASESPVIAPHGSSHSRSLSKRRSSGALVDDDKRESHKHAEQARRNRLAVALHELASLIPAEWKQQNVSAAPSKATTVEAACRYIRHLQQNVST

Q: For GATTGCACGTGTTGAT, which “relative binding free energy” value is on record?
A: The value was 0.753 kJ/mol.

Q: For AGACACACGTGAGGGG, which “relative binding free energy” value is on record?
A: Its value is 0.377 kJ/mol.

Q: For GTCATCACGTGTGTGC, which “relative binding free energy” value is on record?
A: The value was 1.13 kJ/mol.

Q: Which “relative binding free energy” value does the source give for ATCGTCACGTGTAATG here?
A: Its value is 0.962 kJ/mol.

Q: CGGTGCACGTGAGTGT was tested. Which “relative binding free energy” value did it give?
A: Its value is 0.795 kJ/mol.

Q: How did the “relative binding free energy” value turn out when ACTTTCACGTGTTGTT was run?
A: The value was 0.753 kJ/mol.

Q: Which “relative binding free energy” value does the source give for AAGTTCACGTGAGGCT here?
A: Its value is 1.92 kJ/mol.

Q: CATTTCACGTGAATGG was tested. Which “relative binding free energy” value did it give?
A: The value was 2.3 kJ/mol.

Q: How did the “relative binding free energy” value turn out when CGGGTCACGTGAAGTA was run?
A: Its value is 1.84 kJ/mol.

Q: With TGGTTCACGTGGGTTT as the sequence, how does the “relative binding free energy” value read?
A: The value was 1.13 kJ/mol.

Q: Which “relative binding free energy” value does the source give for CGTTTCACGTGGGCGG here?
A: Its value is 0.586 kJ/mol.

Q: ATGTCCACGTGGTTGG was tested. Which “relative binding free energy” value did it give?
A: Its value is -0.251 kJ/mol.

Q: With ACGTGCACGTGAGGAG as the sequence, how does the “relative binding free energy” value read?
A: Its value is -0.0418 kJ/mol.

Q: For TAGGTCACGTGGGGAA, which “relative binding free energy” value is on record?
A: Its value is 0.126 kJ/mol.

Q: Which “relative binding free energy” value does the source give for ATTGTCACGTGCATGA here?
A: The value was -0.335 kJ/mol.

Q: GGTTGCACGTGTGCGG was tested. Which “relative binding free energy” value did it give?
A: The value was 0.209 kJ/mol.

Q: How did the “relative binding free energy” value turn out when AGGAGCACGTGCGCGG was run?
A: The value was -0.962 kJ/mol.

Q: Which “relative binding free energy” value does the source give for TGGGTCACGTGATTTC here?
A: Its value is 1.59 kJ/mol.

Q: For TGATTCACGTGAGGGA, which “relative binding free energy” value is on record?
A: The value was 1.13 kJ/mol.

Q: How did the “relative binding free energy” value turn out when AGAGGCACGTGTAGGG was run?
A: Its value is -0.335 kJ/mol.

Q: For ATATACACGTGGGCTT, which “relative binding free energy” value is on record?
A: The value was -0.962 kJ/mol.

Q: GTGGACACGTGTTCGA was tested. Which “relative binding free energy” value did it give?
A: Its value is -0.0837 kJ/mol.

Q: Which “relative binding free energy” value does the source give for TGTTACACGTGAGTTT here?
A: The value was 1.38 kJ/mol.

Q: With TCAGTCACGTGGAAGT as the sequence, how does the “relative binding free energy” value read?
A: Its value is 0.377 kJ/mol.

Q: For TTGGACACGTGAGGTA, which “relative binding free energy” value is on record?
A: The value was 1.34 kJ/mol.

Q: For AAGGGCACGTGGGAGA, which “relative binding free energy” value is on record?
A: Its value is -1 kJ/mol.

Q: With ACGTGCACGTGTGGGC as the sequence, how does the “relative binding free energy” value read?
A: Its value is 0.126 kJ/mol.

Q: TAGTGCACGTGCGTGG was tested. Which “relative binding free energy” value did it give?
A: The value was -0.544 kJ/mol.

Q: With GTGGTCACGTGGCTAT as the sequence, how does the “relative binding free energy” value read?
A: Its value is 0.586 kJ/mol.

Q: How did the “relative binding free energy” value turn out when GTGCGCACGTGGTTGG was run?
A: The value was -0.335 kJ/mol.

Q: For GTGTGCACGTGACATA, which “relative binding free energy” value is on record?
A: Its value is 0.628 kJ/mol.

Q: Which “relative binding free energy” value does the source give for TGGGACACGTGGGTTC here?
A: Its value is -0.209 kJ/mol.

Q: For TCTATCACGTGAGGCG, which “relative binding free energy” value is on record?
A: Its value is 1.88 kJ/mol.

Q: With ATGGGCACGTGAATTA as the sequence, how does the “relative binding free energy” value read?
A: Its value is 0.628 kJ/mol.

Q: With GTTACCACGTGGAAGT as the sequence, how does the “relative binding free energy” value read?
A: Its value is 0.628 kJ/mol.

Q: With TGTAGCACGTGTAATG as the sequence, how does the “relative binding free energy” value read?
A: The value was -0.167 kJ/mol.

Q: How did the “relative binding free energy” value turn out when GGTAGCACGTGGGCGA was run?
A: Its value is -1.09 kJ/mol.

Q: For GTATCCACGTGTTTAG, which “relative binding free energy” value is on record?
A: The value was 0.711 kJ/mol.

Q: For TATATCACGTGTAGCT, which “relative binding free energy” value is on record?
A: Its value is 0.879 kJ/mol.

Q: Which “relative binding free energy” value does the source give for GACCGCACGTGGAGGG here?
A: Its value is 0.0418 kJ/mol.

Q: For TAATGCACGTGTGAGT, which “relative binding free energy” value is on record?
A: The value was -0.0837 kJ/mol.

Q: For GTCGTCACGTGATGTC, which “relative binding free energy” value is on record?
A: Its value is 1.05 kJ/mol.

Q: With TGTATCACGTGGGGCC as the sequence, how does the “relative binding free energy” value read?
A: Its value is 0.0418 kJ/mol.

Q: How did the “relative binding free energy” value turn out when ATTGTCACGTGGGTCA was run?
A: The value was 0.0837 kJ/mol.

Q: Which “relative binding free energy” value does the source give for AGGTACACGTGTACGG here?
A: Its value is 0.335 kJ/mol.

Q: With AGCGACACGTGGTTGG as the sequence, how does the “relative binding free energy” value read?
A: The value was 0.46 kJ/mol.

Q: How did the “relative binding free energy” value turn out when TTGGTCACGTGGGCAG was run?
A: Its value is -0.377 kJ/mol.

Q: With AGATGCACGTGGGGGG as the sequence, how does the “relative binding free energy” value read?
A: Its value is -0.962 kJ/mol.

Q: With ATGGCCACGTGGGTTG as the sequence, how does the “relative binding free energy” value read?
A: Its value is -0.837 kJ/mol.

Q: For GCTGGCACGTGCAGGT, which “relative binding free energy” value is on record?
A: Its value is -0.251 kJ/mol.

Q: For CCGTTCACGTGGGTTT, which “relative binding free energy” value is on record?
A: Its value is 0.335 kJ/mol.

Q: How did the “relative binding free energy” value turn out when GAATTCACGTGGGGGC was run?
A: Its value is 1.51 kJ/mol.

Q: For TGTTGCACGTGTTGAG, which “relative binding free energy” value is on record?
A: The value was -0.0837 kJ/mol.

Q: TATGCCACGTGCGGGT was tested. Which “relative binding free energy” value did it give?
A: The value was -0.502 kJ/mol.

Q: For GAAGGCACGTGATGAT, which “relative binding free energy” value is on record?
A: Its value is 0.753 kJ/mol.

Q: With CCGGTCACGTGTAGTT as the sequence, how does the “relative binding free energy” value read?
A: Its value is 0.502 kJ/mol.

Q: With GGTCTCACGTGGTGGT as the sequence, how does the “relative binding free energy” value read?
A: The value was 0.711 kJ/mol.

Q: TTTGACACGTGCACGG was tested. Which “relative binding free energy” value did it give?
A: Its value is -0.167 kJ/mol.

Q: TGGATCACGTGTCGGG was tested. Which “relative binding free energy” value did it give?
A: Its value is 1.09 kJ/mol.

Q: With TCGATCACGTGCTGTT as the sequence, how does the “relative binding free energy” value read?
A: Its value is 0.962 kJ/mol.

Q: With TGATGCACGTGAGAGG as the sequence, how does the “relative binding free energy” value read?
A: Its value is 0.544 kJ/mol.

Q: How did the “relative binding free energy” value turn out when TTTGGCACGTGTGCTA was run?
A: The value was 0.0837 kJ/mol.

Q: GGAGACACGTGTTAGG was tested. Which “relative binding free energy” value did it give?
A: Its value is 0.0418 kJ/mol.

Q: How did the “relative binding free energy” value turn out when TTGAGCACGTGTTTCG was run?
A: The value was -0.418 kJ/mol.

Q: With TCGTGCACGTGAAGTT as the sequence, how does the “relative binding free energy” value read?
A: The value was 0.46 kJ/mol.

Q: For GTACGCACGTGGTATT, which “relative binding free energy” value is on record?
A: The value was -0.0837 kJ/mol.

Q: With CGAGGCACGTGTGAGG as the sequence, how does the “relative binding free energy” value read?
A: Its value is -0.335 kJ/mol.

Q: Which “relative binding free energy” value does the source give for GTCTTCACGTGGGGTC here?
A: Its value is 0.92 kJ/mol.

Q: Which “relative binding free energy” value does the source give for GAATACACGTGGTGAG here?
A: Its value is 0.46 kJ/mol.

Q: For TGGTACACGTGCGTCT, which “relative binding free energy” value is on record?
A: Its value is -0.0418 kJ/mol.

Q: With AAAGACACGTGGGGCG as the sequence, how does the “relative binding free energy” value read?
A: Its value is -0.586 kJ/mol.

Q: GATGGCACGTGAGTCG was tested. Which “relative binding free energy” value did it give?
A: The value was 0.92 kJ/mol.

Q: CGGTGCACGTGAGGGG was tested. Which “relative binding free energy” value did it give?
A: Its value is 0.711 kJ/mol.
